The results in this text go back to US6121271A, “Naphtho[2,3-B]heteroar-4-yl derivatives” (American Home Products Corporation, priority 1999, dated 2000).

This assay concerns the target T1, recombinant, human protein tyrosine phosphatase (PTP) 1B (Homo sapiens, UniProt P18031).
T1 sequence (P18031 1-435): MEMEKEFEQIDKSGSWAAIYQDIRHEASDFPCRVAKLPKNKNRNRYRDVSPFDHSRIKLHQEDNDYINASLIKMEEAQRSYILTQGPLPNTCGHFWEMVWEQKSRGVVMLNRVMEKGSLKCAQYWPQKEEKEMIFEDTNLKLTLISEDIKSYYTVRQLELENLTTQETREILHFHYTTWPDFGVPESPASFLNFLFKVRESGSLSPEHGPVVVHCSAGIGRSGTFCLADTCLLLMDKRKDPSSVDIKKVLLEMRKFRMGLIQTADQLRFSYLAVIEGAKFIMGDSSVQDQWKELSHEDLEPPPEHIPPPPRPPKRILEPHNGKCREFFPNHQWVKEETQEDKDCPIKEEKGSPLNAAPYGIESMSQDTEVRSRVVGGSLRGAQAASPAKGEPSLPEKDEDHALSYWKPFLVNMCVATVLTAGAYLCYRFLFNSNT
Particulars: for inhibition at 1 µM: read-out: % inhibition @ 1 (μM).

Each structure is given as a SMILES string.

As a reminder, the IC50 is the midpoint of a concentration-inhibition curve. As to `Cc1sc2c(Br)c3ccccc3c(-c3ccc(OS(=O)(=O)c4ccc(C(=O)O)c(O)c4)c(C(C)C)c3)c2c1C` [Example 1, 4-[4-(9-Bromo-2,3-dimethyl-naphtho[2,3-b]thiophen-4-yl)-2-isopropyl-phenoxysulfonyl]-2-hydroxy-benzoic acid], the IC50 amounted to 0.048 µM. Regarding `Cc1cc(-c2c3ccccc3c(Br)c3sc(C)c(C)c23)cc(C)c1OS(=O)(=O)c1ccc(C(=O)O)c(O)c1` [Example 2, 4-[4-(9-Bromo-2,3-dimethyl-naphtho[2,3-b]thiophen-4-yl)-2,6-dimethyl-phenoxysulfonyl]-2-hydroxy-benzoic acid], the IC50 was 0.106 µM. Regarding `Cc1sc2c(Br)c3ccccc3c(-c3ccc(OS(=O)(=O)c4ccc(C(=O)O)c(O)c4)c(C4CCCC4)c3)c2c1C` [Example 3, 4-[4-(9-Bromo-2,3-dimethyl-naphtho[2,3-b]thiophen-4-yl)-2-cyclopentyl-phenoxysulfonyl]-2-hydroxy-benzoic acid], the half-inhibitory concentration (IC50) was determined as 0.028 µM. The same measure, in the same setting: the value for `Cc1sc2c(Br)c3ccccc3c(-c3cc(C(C)C)c(OS(=O)(=O)c4ccc(C(=O)O)c(O)c4)c(C(C)C)c3)c2c1C` [Example 4, 4-[4-(9-Bromo-2,3-dimethyl-naphtho[2,3-b]thiophen-4-yl)-2,6-diisopropyl-phenoxysulfonyl]-2-hydroxy-benzoic acid] was 0.033 µM; that for `CC(=O)Oc1cc(S(=O)(=O)Oc2c(C)cc(-c3c4ccccc4c(Br)c4sc(C)c(C)c34)cc2C)ccc1C(=O)O` [Example 5, 2-Acetoxy-4-[4-(9-bromo-2,3-dimethyl-naphtho[2,3-b]thiophen-4-yl)-2,6-dimethyl-phenoxysulfonyl]-benzoic acid] was 0.081 µM. On the same count and under the same terms, the value for `CC(=O)Oc1cc(S(=O)(=O)Oc2ccc(-c3c4ccccc4c(Br)c4sc(C)c(C)c34)cc2C2CCCC2)ccc1C(=O)O` [Example 6, 2-Acetoxy-4-[4-(9-bromo-2,3-dimethyl-naphtho[2,3-b]thiophen-4-yl)-2-cyclopentyl-phenoxysulfonyl]-benzoic acid] was 0.056 µM; that for `CCCC(=O)Oc1cc(S(=O)(=O)Oc2c(C)cc(-c3c4ccccc4c(Br)c4sc(C)c(C)c34)cc2C)ccc1C(=O)O` [Example 7, 2-Butyryloxy-4-[4-(9-bromo-2,3-dimethyl-naphtho[2,3-b]thiophen-4-yl)-2,6-dimethyl-phenoxysulfonyl]-benzoic acid] was 0.049 µM.

On to `Cc1cc(-c2c3ccccc3c(Br)c3sc(C)c(C)c23)cc(C)c1OS(=O)(=O)c1ccc(C(=O)O)c(OC(=O)c2ccccc2)c1` [Example 8, 2-Benzoyloxy-4-[4-(9-bromo-2,3-dimethyl-naphtho[2,3-b]thiophen-4-yl)-2,6-dimethyl-phenoxysulfonyl]-benzoic acid], for which the IC50 is 0.021 µM. On the same count and under the same terms, the value for `CCC(=O)Oc1cc(S(=O)(=O)Oc2c(C)cc(-c3c4ccccc4c(Br)c4sc(C)c(C)c34)cc2C)ccc1C(=O)O` [Example 9, 2-Propionyloxy-4-[4-(9-bromo-2,3-dimethyl-naphtho[2,3-b]thiophen-4-yl)-2,6-dimethyl-phenoxysulfonyl]-benzoic acid] was 0.042 µM; that for `COc1c(C(=O)O)csc1S(=O)(=O)Oc1ccc(-c2c3ccccc3c(Br)c3sc(C)c(C)c23)cc1C1CCCC1` [Example 10, 5-[4-(9-Bromo-2,3-dimethyl-naphtho[2,3-b]thiophen-4-yl)-2-cyclopentyl-phenoxysulfonyl]-4-methoxy-thiophene-3-carboxylic acid] was 0.039 µM; that for `Cc1sc2c(Br)c3ccccc3c(-c3ccc(OS(=O)(=O)c4scc(C(=O)O)c4O)c(C4CCCC4)c3)c2c1C` [Example 11, 5-[4-(9-Bromo-2,3-dimethyl-naphtho[2,3-b]thiophen-4-yl)-2-cyclopentyl-phenoxysulfonyl]-4-hydroxy-thiophene-3-carboxylic acid] was 0.028 µM. `Cc1sc2cc3ccccc3c(-c3ccc(OS(=O)(=O)c4ccc(C(=O)O)c(O)c4)c(C4CCCC4)c3)c2c1C` [Example 12, 4-[2-Cyclopentyl-4-(2,3-dimethyl-naphtho[2,3-b]thiophen-4-yl)-phenoxysulfonyl]-2-hydroxy-benzoic acid]: the half-inhibitory concentration (IC50) was determined as 0.08 µM. On to `Cc1oc2cc3ccccc3c(-c3ccc(OS(=O)(=O)c4ccc(C(=O)O)c(O)c4)c(C4CCCC4)c3)c2c1C` [Example 13, 4-[2-Cyclopentyl-4-(2,3-dimethyl-naphtho[2,3-b]furan-4-yl)-phenoxysulfonyl]-2-hydroxy-benzoic acid], for which the concentration for half-maximal inhibition (IC50) is 0.125 µM.

In the case of `CCc1cc(-c2c3ccccc3cc3oc(C)c(C)c23)cc(Br)c1OS(=O)(=O)c1ccc(C(=O)O)c(O)c1` [Example 14, 4-[2-Bromo-4-(2,3-dimethyl-naphtho[2,3-b]furan-4-yl)-6-ethyl-phenoxysulfonyl]-2-hydroxy-benzoic acid], the IC50 amounted to 0.083 µM.

As for `CCc1cc(-c2c3ccccc3cc3oc(C)c(C)c23)cc(CC)c1OS(=O)(=O)c1ccc(C(=O)O)c(O)c1` [Example 15, 4-[4-(2,3-Dimethyl-naphtho[2,3-b]furan-4-yl)-2,6-diethyl-phenoxysulfonyl]-2-hydroxy-benzoic acid], the half-maximal inhibitory concentration (IC50) amounted to 0.079 µM. Same read-out and setting: the value for `Cc1cc(-c2c3ccccc3c(Br)c3sc(C)c(C)c23)cc(C)c1OS(=O)(=O)c1ccc(C(=O)OC(C)(C)C)c(O)c1` [Example 16, 4-[4-(9-Bromo-2,3-dimethyl-naphtho [2,3-b]thiophen-4-yl)-2,6-dimethyl-phenoxysulfonyl]-2-hydroxy-benzoic acid tert-butyl ester] was 0.38 µM; that for `COc1ccc(C(=O)Oc2cc(S(=O)(=O)Oc3c(C)cc(-c4c5ccccc5c(Br)c5sc(C)c(C)c45)cc3C)ccc2C(=O)O)cc1` [Example 17, 2-(4-Methoxy-benzoyl)oxy-4-[4-(9-bromo-2,3-dimethyl-naphtho[2,3-b]thiophen-4-yl)-2,6-dimethyl-phenoxysulfonyl]-benzoic acid] was 0.015 µM; that for `CCc1cc(-c2c3ccccc3cc3sc(C)c(C)c23)cc(CC)c1OS(=O)(=O)c1scc(C(=O)O)c1OC` [Example 18, 5-[4-(2,3-dimethyl-naphtho[2,3-b]thiophen-4-yl)-2,6-diethyl-phenoxysulfonyl]-4-methoxy-thiophene-3-carboxylic acid] was 0.121 µM. For orientation: inhibition means the share of the control response that was lost under treatment. In the case of `Cc1sc2cc3ccccc3c(-c3ccc(OS(=O)(=O)c4ccc(-c5ccccn5)s4)c(C4CCCC4)c3)c2c1C` [Example 19, 5-Pyridin-2-yl-thiophene-2-sulfonic acid 2-cyclopentyl-4-(2,3-dimethyl-naphtho[2,3-b]thiophen-4-yl)-phenyl ester], the inhibition at 1 µM was found to be 20%.

For the compound `CCc1cc(-c2c3ccccc3cc3sc(C)c(C)c23)cc(CC)c1OS(=O)(=O)c1scc(C(=O)O)c1OC(=O)c1ccccc1` [Example 20, 4-Benzoyloxy-5-[4-(2,3-dimethyl-naphtho[2,3-b]thiophen-4-yl)-2,6-diethyl-phenoxysulfonyl]-thiophene-3-carboxylic acid], the IC50 amounted to 0.193 µM.

In the case of `Cc1sc2cc3ccccc3c(-c3ccc(OS(=O)(=O)c4cccc(C(=O)O)c4)c(C4CCCC4)c3)c2c1C` [Example 21, 3-[2-Cyclopentyl-4-(2,3-dimethyl-naphtho[2,3-b]thiophen-4-yl)-phenoxysulfonyl]-benzoic acid], the IC50 turned out to be 0.196 µM. In the case of `CSc1nccc(-c2ccc(S(=O)(=O)Oc3ccc(-c4c5ccccc5cc5sc(C)c(C)c45)cc3C3CCCC3)s2)n1` [Example 22, 5-(2-Methylsulfanyl-pyrimidin-4-yl)-thiophene-2-sulfonic acid 2-cyclopentyl-4-(2,3-dimethyl-naphtho[2,3-b]thiophen-4-yl)-phenyl ester], the inhibition at 1 µM is 17%. Consider `Cc1cc(-c2c3ccccc3cc3sc(C)c(C)c23)cc(C)c1OS(=O)(=O)c1ccc(C(=O)O)c(OC(=O)c2ccccc2)c1` [Example 23, 2-Benzoyloxy-4-[4-(2,3-dimethyl-naphtho[2,3-b]thiophen-4-yl)-2,6-dimethyl-phenoxysulfonyl]-benzoic acid], for which the IC50 is 0.033 µM. Consider `Cc1cc(-c2c3ccccc3cc3sc(C)c(C)c23)cc(C)c1OS(=O)(=O)c1ccc(C(=O)O)c(OC(=O)c2ccc(Cl)cc2)c1` [Example 24, 2-(4-Chloro-benzoyl)oxy-4-[4-(2,3-dimethyl-naphtho[2,3-b]thiophen-4-yl)-2,6-dimethyl-phenoxysulfonyl]-benzoic acid], for which the IC50 is 0.083 µM. The same measure, in the same setting: the value for `Cc1cc(-c2c3ccccc3cc3sc(C)c(C)c23)cc(C)c1OS(=O)(=O)c1ccc(C(=O)O)c(OC(=O)c2cccnc2)c1` [Example 25, Nicotinic acid 2-carboxy-5-[4-(2,3-dimethyl-naphtho[2,3-b]thiophen-4-yl)-2,6-dimethyl-phenoxysulfonyl]-phenyl ester] was 0.049 µM; that for `Cc1cc(-c2c3ccccc3c(Br)c3sc(C)c(C)c23)cc(C)c1OS(=O)(=O)c1ccc(C(=O)O)c(OC(=O)c2cccnc2)c1` [Example 26, Nicotinic acid 2-carboxy-5-[4-(9-bromo-2,3-dimethyl-naphtho[2,3-b]thiophen-4-yl)-2,6-dimethyl-phenoxysulfonyl]-phenyl ester] was 0.072 µM. Still for that read-out and setting: then `Cc1cc(-c2c3ccccc3c(Br)c3sc(C)c(C)c23)cc(C)c1OS(=O)(=O)c1ccc(C(=O)O)c(OC(=O)c2ccc(C#N)cc2)c1` [Example 28, 2-(4-Cyano-benzoyl)oxy-4-[4-(9-bromo-2,3-dimethyl-naphtho[2,3-b]thiophen-4-yl)-2,6-dimethyl-phenoxysulfonyl]-benzoic acid], with 0.024 µM.
